In the RNAGym collection of RNA variant scans (doi:10.1093/nar/gkz1192):
Read counts are not given, so values of variants with three or more changes are uncertain.

B1: CPEB3 Ribozyme (parent)
chain: UAACAGGGGGCCACAGCAGAAGCGUUCACGUCGCAGCCCCUGUCAGAUUCUGGUGAAUCUGCGAAUUCUGCUGUAUAUCUC

Variants of: B1
Assay: self-cleavage, relative activity (ratio to wild type); higher = more cleavage; in vitro, sequencing
How it was run: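 CPEB3 self-cleaving ribozyme mutant libraries were made by rounds of error-prone PCR, barcoded, and transcribed in vitro with T7 RNA polymerase for 5 hours at 37°C. Cleavage occurred during transcription and a 15 min DNase I step before EDTA stop. RNAs were reverse transcribed with template switching and Illumina-sequenced, with DNA sequencing mapping barcodes to variants. Relative activity is the variant's cleaved/total read fraction divided by wild type's (minimum 5 reads), averaged across three batches.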
UAGCAGGGGGCCUCAGCAGAAGCGUUCACGUCGCAGCCCCUGUCAGAUUCUGGUGAAUCUGCGUAUUCUGCUGUAUAUCUC [A3G A13U A64U] gave a self-cleavage of 0.44.
UAGCAGGGGGCCGCACCAGAAGCGUUCACGUUGUAGCCCCUGUCAGAUUCCGGUGAAUCUGCGAAUUCAGCUGUAUAUCUC [A3G A13G G16C C32U C34U U51C U69A] showed a self-cleavage of 0.07.
With UAGCAGGGGGCCACGGCAGAAGCGUUCACGUCGCUGCCCCUGUCAGAUUCUGGCGAAUCUGCGUGUCCUGCUGUAUAUCUC [A3G A15G A35U U54C A64U A65G U67C] the self-cleavage was 0.19.
UAGCAGGGGGCCUCAGCAGGAGCGUUCACGUCGCAGCCCUUGUCAGAUUCUGGUGAAUCUGCGAUUUCUGCUGUAUAUCUC [A3G A13U A20G C40U A65U] showed a self-cleavage of 0.09.
In the case of UAGCAGGGGGCCACCGCAGAAGCGUUCACGUCGCGGCCCCUGUCAGAUUCUGGUGAAUCUGCAAAUUCUGCUGUAUAUCUC [A3G A15C A35G G63A], the self-cleavage is reported as 1.07.
With UAGCAGGGGGCCGCAGCAGAAGCGUUCACGUCGCAGCUCCUAUCAGAUUCUGGUGAAUCUGCGAAUUCUGCUAUAUAUCAC [A3G A13G C38U G42A G73A U80A] the self-cleavage was 0.19.
Variant UAGCAGGGGGCCUCAGCAGAGGCGUUCACAUCGCAGCCCCUGUCAGUUUCUGGUGAAUCUGCGAAUUCUGCUGUAUAUCUC [A3G A13U A21G G30A A47U] has a self-cleavage of 0.01.
UAGCAGGGGGCCGCAGCAGAAGCGCUCACGUCGCAGCCCCUGUCAGAUUCUGGUGAAUCUGCGAAUUCUGCUGUAUAUCUC [A3G A13G U25C] gave a self-cleavage of 0.68.
With UAGCAGGGGGCCGCACCAGAAGCGUUCACGUCGCAGCCCCUGUCAGAUUCUGGUGAAUCUGCGAAUUCUGCUGUAUAUCUC [A3G A13G G16C] the self-cleavage was 0.13.
With UAGCAGGGGGCCUCAGCAGAAGCGUUCACGUCGCAGCCCCUGUCAGAUUCUGGUGAAUCUGCGAAUUCUGCUGUAUAUCCC [A3G A13U U80C] the self-cleavage was 1.
UAGCAGGGGGCCGCAGCAGAAGCGUUCACGUCACAGCUCCUGUCAGAUUCUGGUGUAUCUGCGGACUCUGCUGUAUAUCUC [A3G A13G G33A C38U A56U A64G U66C] showed a self-cleavage of 0.1.
In the case of UAGCAGGGGGCCUCAGCGGAAGCGUUCACGUCGCAGCCCCUGUCUGAUUCAGGUGAAUCUGCGGAUUCUGCUGUAUAUCGC [A3G A13U A18G A45U U51A A64G U80G], the self-cleavage is reported as 0.24.
With UAGCAGGGGGCCUCAGCAGAAGUGUUCUCGUCGCAUCCCCUGUCAGAUUCUGGUGAAUCUGCGAAUUCUGCUGUAUAUCUC [A3G A13U C23U A28U G36U] the self-cleavage was 0.12.
UAGCAGGGGGCCUCAGCAGAACCGUUCACGUCGCAGCCCCUGUCAGUUUCUGGUGAAUCUUCGAAUUCUGCUGUAUAUCUC [A3G A13U G22C A47U G61U] gave a self-cleavage of 0.11.
For UAGCAGGGGGCCUCAGCAGAAGCGUUCGCGUCGCAGCCCCUGUCAGAUUCUGGUGAAUCUGCGAAUUCUGCUGUAUAUCUC [A3G A13U A28G], the self-cleavage was 0.8.
Work on UAGCAGGGGGCCUCAGCAGAAGCGUUCACGUCGCAGCCCCUGUCAGAUUCUGGUGAACCUGCGAAUCCUGCUGUAUACCUC [A3G A13U U58C U67C U78C] yielded a self-cleavage of 0.23.
UAGCAGGGGGCCGCAGCAGAAGCGUUCACGUCGCAGCCCCUGUCAGAUUCUGGUGAAUCUGCGAAUUCUGCUGUAAAUCUC [A3G A13G U76A] gave a self-cleavage of 1.05.
UAGCAGGGGGCCUCAGCAGAAGCGUCCACGUCGCAGCCCCUGUCUGAUUCUGGUGAAUCUGCGAAUUCUGCUGUAUAUCAC [A3G A13U U26C A45U U80A] showed a self-cleavage of 0.21.
Work on UAGCAGGGGGCCGCAGCAGAAGCGUUCACGACGCAGCCCCUGUCAAAUUCUGGUGAAUCUGCGAAUUCCGCCGUAUACCUC [A3G A13G U31A G46A U69C U72C U78C] yielded a self-cleavage of 0.13.
With UAGCAGGGGGCCUCAGCAGAAGCGUUCACGUCGCAGCCCCUGUCAGAUUCUGGUGGAUCUGCGAAUUCUGCUGUAUAUCUC [A3G A13U A56G] the self-cleavage was 0.89.
In the case of UAGCAGGGGGCCUCAGCAGAAGCGGUCAUGUCGCAGCCCCUGUCAGAUUCUGGUGAAUCUGCGCAUUCUGCUGUAUAUCUC [A3G A13U U25G C29U A64C], the self-cleavage is reported as 0.27.
UAGCAGGGGGCCGCAGCAGAAGCGUUCACUUCGCCGCCCCUGUCAGAUCCUGGUGAAUCUGCGAAUUCUGCUGUAUAUCUC [A3G A13G G30U A35C U49C] gave a self-cleavage of 0.06.
For UAGCAGGGGGCCUCAGCAGAAGCGUUCACGUCGCAGCCCCUGUCGGAUUCUGGAGAAUCUGCGAAUUCUGCUGUAUAUCUC [A3G A13U A45G U54A], the self-cleavage was 1.05.
With UAGCAGGGGGCCGCAGCAGAAGCGUUCACGUCGCAGCCCCAGUCAGAUUCUGGUUAACCUGCGAAUUCUGCUGUAUAUCUC [A3G A13G U41A G55U U58C] the self-cleavage was 0.29.
UAGCAGGGGGCCGCAGCAGAAGCGUUCACGUCGCAGCCCCUGUCAGAUUCUGGUGAAUCUGCGAAUUCUGCUGAAUAUCUC [A3G A13G U74A] showed a self-cleavage of 1.09.
UAGCAGGGGGCCACGGCUGAAGCGUUCACGUCGCAGCCCCUGCCAGAUUCUGGUGAAUCUGCGAAUUCUGCUGUAUAUCUC [A3G A15G A18U U43C] gave a self-cleavage of 0.11.
In the case of UAGCAGGGGGCCACGGCAGGGCCGUUCACGUCGCAGCCCCUGUCAGAUUCUGGUGAACCUGCGAAUUCUGCUGUAUAUCUC [A3G A15G A20G A21G G22C U58C], the self-cleavage is reported as 0.24.
Work on UAGCAGGGGGCCGCAGCAGAAGCGUUCACGUCGCAGACCCUGUCAGAUUCUGGUGAAUCUGCGAAUUCCGCUGUAUAUCUC [A3G A13G C37A U69C] yielded a self-cleavage of 0.16.
Work on UAGCAGGGGGCCUCAGCAGAAGCGUUCACGUCGCAGCCCCUGUCAGAUUCUUGUGAAUCUGCGAAUUCUGCUGUAUAUCUC [A3G A13U G52U] yielded a self-cleavage of 1.14.
Variant UAGCAGGGGGCCACGGCGGAAGCGUUCGCGUCGCAGCCCCUGUCUGAUUCUGGUGAAUCUCCGAAUUCUGCUGUAUAUCAC [A3G A15G A18G A28G A45U G61C U80A] has a self-cleavage of 0.27.
For UAGCAGGGGGCCUCAGCGGGAGCGUCCACGUCGCAGCCCCUGUCAGAUUCUGGUGAAUCUGCGAAUUCUGCUGUAUAUCUC [A3G A13U A18G A20G U26C], the self-cleavage was 0.69.
Variant UAGCAGGGGGCCGCAGCAGAAGCGCUCACGUCGCAGCCCCUAUCAGAUUCUGGAGAAUCAGCGAAUUCUGCUGUAUAUCUC [A3G A13G U25C G42A U54A U60A] has a self-cleavage of 0.13.
UAGCAGGGGGCCACGGCAGAUGCGUUCACGUCGCAGCCCCUGUCAGAUUCUGGUGAAUCUGCGAAUUCUGCUGUAAAUCUC [A3G A15G A21U U76A] gave a self-cleavage of 0.3.
In the case of UAGCAGGGGGCCGCAGCAGAAGCGUUCACGUCGCAGCCCCUGUCAGAUUCUGGUGAAACUGCGAUUUCUGCAGCAUAUCUC [A3G A13G U58A A65U U72A U74C], the self-cleavage is reported as 0.18.
